Experimental data as given in PubChem BioAssay AID485364 (National Center for Advancing Translational Sciences (NCATS), 2010).
The whole screen tested about 360,000 compounds, of which about 11,000 (3.1%) were called active. This list was built around the results that the source calls inconclusive (neither active nor inactive); the mix of calls is not that of the screen. The call rests on the fitted dose curve; in most records, active means well fitted inhibition curve with a large enough effect; inconclusive means small, poorly fitted or top-dose-only effect; inactive means no such curve, though single readings can be large or run the other way. Potencies of inconclusive entries are left out as doubtful fits.

Biological target: Schistosoma mansoni thioredoxin glutathione reductase (TGR) (UniProt Q962Y6)
Assay: qHTS Assay for the Inhibitors of Schistosoma Mansoni Peroxiredoxins; further: nearly all actives have a fitted effect of over 60% in size
Conditions: purified TGR, DTNB reduction, TNB absorbance 405 nm; series mostly up to 114 µM
Outline: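 First, TGR (20 nM dispensed) and NADPH were mixed with compound. Second, a 15 min room-temperature incubation followed. Third, further NADPH and then DTNB were added to start the reaction. Finally, TNB absorbance was monitored kinetically.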
Potency means the concentration at half of the fitted maximal effect; tags describe the fitted curve by direction and shape.

Q: CNCC(O)c1ccc(O)c(O)c1 (configuration not stated) was tested. Which Potency did it give?
A: active: 44.7 µM

Q: How did the Potency turn out when Cc1cc2nc(CCl)cc(=O)n2[nH]1 was run?
A: inconclusive [inhibitor, partial curve]

Q: With COc1ccc(OC)c(C(=O)/C=C/c2cccnc2)c1 as the molecule, how does the Potency read?
A: inconclusive [inhibitor, partial curve]

Q: For CC/C(=N\NC(=S)Nc1ccccc1)c1c(O)[nH]c(=O)[nH]c1=O, which Potency is on record?
A: inconclusive [inhibitor, partial curve]

Q: Which Potency does the source give for CC(C)CN(CC(C)C)c1ccc(C=C2C(=O)NC(=S)NC2=O)cc1[N+](=O)[O-] here?
A: active: 1.12 µM

Q: With COc1ccc(/C=C/C(=O)c2ccc([N+](=O)[O-])o2)cc1OC as the molecule, how does the Potency read?
A: active: 6.31 µM

Q: For COc1cc(CN2CCN(S(=O)(=O)c3ccc(NC(C)=O)cc3)CC2)cc(OC)c1O, which Potency is on record?
A: inconclusive [inhibitor, full curve]

Q: O=C(Nc1ccc(N2CCCC2)cc1)c1cccc(F)c1 was tested. Which Potency did it give?
A: inconclusive [inhibitor, partial curve]

Q: With COc1ccc(N=Nc2nc3cc(Br)c(Br)cc3n2C)c(OC)c1 as the molecule, how does the Potency read?
A: active: 44.7 µM

Q: How did the Potency turn out when O=[N+]([O-])c1ccccc1-c1ccc(CN2CCN(c3ccccc3)CC2)o1 was run?
A: inconclusive [inhibitor, partial curve]

Q: With Cc1occc1C(=O)Nc1cccc(C(F)(F)F)c1 as the molecule, how does the Potency read?
A: inconclusive [inhibitor, partial curve, poor fit]

Q: Which Potency does the source give for C#CCSc1nnc(-c2ccc([N+](=O)[O-])cc2)o1 here?
A: inconclusive [inhibitor, full curve, poor fit]

Q: O=C(C1CCN(S(=O)(=O)c2ccccc2)CC1)N(CCc1ccccc1)Cc1ccco1 was tested. Which Potency did it give?
A: inconclusive [inhibitor, partial curve]

Q: CC1CCC(NC(=O)CNC(=O)c2ccc3ccccc3c2)CC1 (configuration not stated) was tested. Which Potency did it give?
A: inconclusive [inhibitor, partial curve]

Q: For Cc1cc(C)nc(NS(=O)(=O)c2ccc(NC(=S)NC(=O)C3CCCC3)cc2)n1, which Potency is on record?
A: inconclusive [inhibitor, partial curve]

Q: For Cc1sc2ncn(CC(=O)NCc3ccco3)c(=O)c2c1-c1ccc(F)cc1, which Potency is on record?
A: inconclusive [inhibitor, full curve]

Q: Which Potency does the source give for Cc1ccc(CN(C)C(=O)C2CCCN2C(=O)c2cccs2)o1 (configuration not stated) here?
A: active: 7.94 µM

Q: Which Potency does the source give for CC(C)C1NC2(C(=O)c3ccccc3C2=O)C2C(=O)N(c3ccc(F)cc3)C(=O)C12 (configuration not stated) here?
A: active: 2 µM

Q: How did the Potency turn out when CCOC(=O)c1c(NC(=O)c2cc3ccccc3c(=O)o2)sc2c1CCCC2 was run?
A: inactive

Q: With COc1cccc(-c2cccc(NC(=O)C3CCN(Cc4cccc(C)n4)CC3)c2)c1 as the molecule, how does the Potency read?
A: inconclusive [inhibitor, single point]

Q: For CCC1=Nc2cc(C(=O)NCCN3CCOCC3)ccc2Sc2ccc(C)cc21, which Potency is on record?
A: inactive

Q: With COc1ccc(/C=C2\SC(=S)N(C(C)C(=O)NC3C=CS(=O)(=O)C3)C2=O)cc1 (configuration not stated) as the molecule, how does the Potency read?
A: inactive

Q: For O=C(CCS(=O)(=O)c1ccccc1)N(CCCN1CCOCC1)c1nc2ccccc2s1, which Potency is on record?
A: active: 2.51 µM

Q: How did the Potency turn out when COc1ccc(-c2[nH]ncc2C(=O)NCc2ccccc2OC)cc1 was run?
A: inactive

Q: Which Potency does the source give for CO/N=C(\N)c1ccc([N+](=O)[O-])cc1 here?
A: inconclusive [inhibitor, single point]

Q: Which Potency does the source give for Cc1occc1-c1nnc(SCC(=O)N2CC(=O)Nc3ccccc32)n1CC(C)C here?
A: inconclusive [inhibitor, full curve]

Q: For CCN(CCCNC(=O)c1cc2c(=O)[nH]c3ccc(C)cc3c2s1)Cc1ccccc1, which Potency is on record?
A: inconclusive [inhibitor, partial curve]

Q: How did the Potency turn out when O=C(/C=C1\NCC2c3ccccc3CCN2C1=O)c1ccccc1 (configuration not stated) was run?
A: inconclusive [inhibitor, full curve]

Q: Which Potency does the source give for NC[C@H](O)c1ccc(O)c(O)c1 here?
A: inconclusive [inhibitor, full curve, poor fit]

Q: With CCOC(=O)CCCCC(=O)c1[nH]c(=O)[nH]c1CSc1nc(C)cc(=O)[nH]1 as the molecule, how does the Potency read?
A: active: 2.51 µM

Q: For CCN1CCN(c2cc(N3CCN(C(=O)c4ccco4)CC3)c3c4c(onc24)-c2ccccc2C3=O)CC1, which Potency is on record?
A: active: 7.08 µM

Q: Which Potency does the source give for CCc1ccc(NS(=O)(=O)c2cccc3nonc23)cc1 here?
A: inconclusive [inhibitor, full curve, poor fit]

Q: Which Potency does the source give for O=C(CSc1nnc(NC(=O)Cc2ccccc2)s1)NCc1ccco1 here?
A: inconclusive [inhibitor, partial curve]

Q: For c1ccc(CSc2nnc3ccc(-c4ccncc4)nn23)cc1, which Potency is on record?
A: inconclusive [inhibitor, single point]

Q: Which Potency does the source give for COc1cc(C(=O)OC2CC3CCC2(C)C3(C)C)ccc1OC(C)=O (configuration not stated) here?
A: inactive

Q: For Clc1ccc(Sc2ccc(/C=N/n3cnnc3)o2)cc1, which Potency is on record?
A: inconclusive [inhibitor, partial curve, poor fit]

Q: With O=C1c2ccccc2CC1Sc1nnc(-c2ccncc2)o1 (configuration not stated) as the molecule, how does the Potency read?
A: active: 15.8 µM

Q: Which Potency does the source give for NC(=O)Cn1c(=O)n(CCCC(=O)NC2CCN(Cc3ccccc3)CC2)c(=O)c2ccccc21 here?
A: inactive

Q: For CC(=O)c1ccccc1C(=O)N1CCCC(C(=O)c2ccc(C(F)(F)F)cc2)C1 (configuration not stated), which Potency is on record?
A: active: 39.8 µM

Q: With CN(Cc1ccc(F)cc1)C(=O)c1ccc(NS(=O)(=O)c2ccccc2)cc1 as the molecule, how does the Potency read?
A: inactive

Q: For CN(Cc1ccco1)C(=O)CSc1nc(C2CC2)n(-c2ccccc2)n1, which Potency is on record?
A: inconclusive [inhibitor, full curve]

Q: O=C(CSc1ncn[nH]1)NCCOc1ccccc1 was tested. Which Potency did it give?
A: inactive

Q: Which Potency does the source give for CCN1C(=O)CC(N2CCC(Cc3ccccc3)CC2)C1=O (configuration not stated) here?
A: inconclusive [inhibitor, full curve, poor fit]

Q: COc1ccc2[nH]c(=O)c(CNc3ccccc3)cc2c1 was tested. Which Potency did it give?
A: inconclusive [inhibitor, partial curve]

Q: With O=C(N/N=C/c1ccc(OCC(=O)N2CCCCC2)cc1)c1ccccc1 as the molecule, how does the Potency read?
A: inactive

Q: For CSc1ccc(/C=C/C(=O)c2c(O)cc(C)oc2=O)cc1, which Potency is on record?
A: inactive

Q: For O=C(Oc1cccc([N+](=O)[O-])c1)c1cc(-c2ccccc2)nc2ccccc12, which Potency is on record?
A: inactive

Q: For NC(=S)NNc1c(F)c(F)c(F)c(F)c1F, which Potency is on record?
A: active: 39.8 µM

Q: For CCN(C(=O)Cc1c(C(=O)O)[nH]c2ccccc12)c1cc(OC)ccc1OC, which Potency is on record?
A: inactive

Q: Which Potency does the source give for COc1cccc(/C=C2\SC(=O)N(CCC(=O)NCCCn3ccnc3)C2=O)c1 here?
A: inactive

Q: How did the Potency turn out when COc1cc(C(=O)NC(=S)Nc2ccc(Cl)c(C(=O)O)c2)cc(OC)c1OC was run?
A: active: 39.8 µM

Q: COc1cc(CNc2cccc(C(=O)O)c2)cc(Br)c1OCC(=O)NC(C)(C)C was tested. Which Potency did it give?
A: inactive

Q: For Cc1cc(/C=C2\C(=O)NC(=O)N(Cc3ccccc3Cl)C2=O)c(C)n1-c1ccc(C(=O)O)cc1, which Potency is on record?
A: inconclusive [inhibitor, full curve, poor fit]

Q: For Cc1cccc(N2CCC(N3CCN(C4CCCCC4)C(CCO)C3)CC2)c1C (configuration not stated), which Potency is on record?
A: active: 5.01 µM

Q: COc1cccc(OCCn2cc(C(=O)c3ccco3)c3ccccc32)c1 was tested. Which Potency did it give?
A: inconclusive [inhibitor, partial curve]

Q: Which Potency does the source give for COc1ccc(N/N=C2/CCCCC2=O)cc1 here?
A: inconclusive [inhibitor, single point]

Q: CCOC(=O)c1ccc(N2C(=O)c3n[nH]c(C)c3C2c2ccc(C(C)C)cc2)cc1 (configuration not stated) was tested. Which Potency did it give?
A: inconclusive [inhibitor, single point]

Q: With O=C(NC1CCSc2ccccc21)c1ccc(F)c(S(=O)(=O)N2CCOCC2)c1 (configuration not stated) as the molecule, how does the Potency read?
A: active: 39.8 µM

Q: For C/C=C/C=C/C(=O)N1CC2(CC(c3cccc(NC(=O)CCCCC)c3)=NO2)C[C@H]1C(N)=O (some centres not stated), which Potency is on record?
A: inconclusive [inhibitor, full curve, poor fit]

Q: With Cc1ccc(S(=O)(=O)N2CC2(C)CCl)cc1 (configuration not stated) as the molecule, how does the Potency read?
A: active: 50.1 µM

Q: Which Potency does the source give for CC1=Nc2ccccc2/C1=C\c1nc(-c2ccccc2)oc1O here?
A: inconclusive [inhibitor, partial curve, poor fit]

Q: With O=C1CC(SCCO)C(=O)N1c1ccc(Oc2ccccc2)cc1 (configuration not stated) as the molecule, how does the Potency read?
A: inconclusive [inhibitor, partial curve]

Q: Cc1sc(NC(=S)NC(=O)c2ccco2)c(C#N)c1C was tested. Which Potency did it give?
A: active: 3.98 µM

Q: How did the Potency turn out when O=C(CCc1n[nH]c(=O)[nH]c1=O)N/N=C/c1ccc(Br)o1 was run?
A: inconclusive [inhibitor, partial curve]

Q: How did the Potency turn out when CCOc1ccc(/C=C2/Sc3ccc(C(=O)NCC4CCCO4)cc3N(C)C2=O)cc1OC (configuration not stated) was run?
A: inconclusive [inhibitor, partial curve]

Q: With COc1cccc(OC)c1OCc1cc(C2C3CCCC=C3C(C#N)=C(N)C2(C#N)C#N)c(C)cc1C (configuration not stated) as the molecule, how does the Potency read?
A: active: 39.8 µM

Q: With Cc1cccc(C)c1N1CCN(C(=O)N2CCOCC2)CC1 as the molecule, how does the Potency read?
A: inconclusive [inhibitor, full curve, poor fit]

Q: O=c1c2cc(N3CCOCC3)ccc2[nH]c(=S)n1CCCN1CCCCCC1 was tested. Which Potency did it give?
A: inconclusive [inhibitor, partial curve]

Q: Cc1ccc(C)c(NC(=O)CSc2ccc(-c3ccco3)nn2)c1 was tested. Which Potency did it give?
A: active: 12.6 µM

Q: For CCCC(=O)Nc1cccn(Cc2ccccc2Br)c1=O, which Potency is on record?
A: inconclusive [inhibitor, partial curve, poor fit]

Q: How did the Potency turn out when Cc1ccc(S(=O)(=O)Nc2ccc3c(c2)c2c(n3S(=O)(=O)c3ccc(C)cc3)CCCC2=O)cc1 was run?
A: inconclusive [inhibitor, single point]

Q: For COc1ccc(NC(=S)NC(NC(=O)CCl)C(Cl)(Cl)Cl)c([N+](=O)[O-])c1 (configuration not stated), which Potency is on record?
A: active: 2.82 µM
